Results: the supplement of paper PMC8728848
The other results are listed elsewhere or left out.

Assays:
Test in all cases: glycan array binding signal (z-score within array); higher = stronger binding
Conditions in all cases: glycan notation: IUPAC condensed, linker removed
[1] = molecular target: Gal(b1-4)GalNAc(b1-3)[Fuc(a1-2)]Gal(b1-4)GlcNAc
In short: (§1)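 The binding signal is a Z-score computed within each array and averaged over linkers. Arrays of the same protein sequence at different concentrations or buffers were also averaged together. Data originate from 3228 arrays in the Consortium for Functional Glycomics database, kept only where the protein sequence was available.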

Gal(b1-4)Glc = molecular target: Gal(b1-4)Glc
In short: as §1

Gal(b1-4)Glc6S = molecular target: Gal(b1-4)Glc6S
In short: as §1

Gal(b1-4)GlcNAc = molecular target: Gal(b1-4)GlcNAc
In short: as §1

[2] = molecular target: Gal(b1-4)GlcNAc(a1-6)Gal(b1-4)GlcNAc
In short: as §1

Gal(b1-4)GlcNAc(b1-2)Man = molecular target: Gal(b1-4)GlcNAc(b1-2)Man
In short: as §1

[3] = molecular target: Gal(b1-4)GlcNAc(b1-2)Man(a1-3)Man(b1-4)GlcNAc(b1-4)GlcNAc
In short: as §1

[4] = molecular target: Gal(b1-4)GlcNAc(b1-2)Man(a1-3)[Gal(b1-4)GlcNAc(b1-2)Man(a1-6)]Man(b1-4)GlcNAc(b1-4)GlcNAc
In short: as §1

[5] = molecular target: Gal(b1-4)GlcNAc(b1-2)Man(a1-3)[Gal(b1-4)GlcNAc(b1-2)Man(a1-6)]Man(b1-4)GlcNAc(b1-4)[Fuc(a1-6)]GlcNAc
In short: as §1

[6] = molecular target: Gal(b1-4)GlcNAc(b1-2)Man(a1-3)[Gal(b1-4)GlcNAc(b1-2)Man(a1-6)][Gal(b1-4)GlcNAc(b1-4)]Man(b1-4)GlcNAc(b1-4)[Fuc(a1-6)]GlcNAc
In short: as §1

[7] = molecular target: Gal(b1-4)GlcNAc(b1-2)Man(a1-3)[Gal(b1-4)GlcNAc(b1-2)Man(a1-6)][GlcNAc(b1-4)]Man(b1-4)GlcNAc(b1-4)[Fuc(a1-6)]GlcNAc
In short: as §1

[8] = molecular target: Gal(b1-4)GlcNAc(b1-2)Man(a1-3)[GlcNAc(b1-2)Man(a1-6)]Man(b1-4)GlcNAc(b1-4)GlcNAc
In short: as §1

[9] = molecular target: Gal(b1-4)GlcNAc(b1-2)Man(a1-3)[GlcNAc(b1-4)][Gal(b1-4)GlcNAc(b1-2)Man(a1-6)]Man(b1-4)GlcNAc(b1-4)GlcNAc
In short: as §1

[10] = molecular target: Gal(b1-4)GlcNAc(b1-2)Man(a1-3)[Man(a1-6)]Man(b1-4)GlcNAc(b1-4)GlcNAc
In short: as §1

[11] = molecular target: Gal(b1-4)GlcNAc(b1-2)Man(a1-6)Man(b1-4)GlcNAc(b1-4)GlcNAc
In short: as §1

[12] = molecular target: Gal(b1-4)GlcNAc(b1-2)Man(a1-6)[GlcNAc(b1-2)Man(a1-3)]Man(b1-4)GlcNAc(b1-4)GlcNAc
In short: as §1

[13] = molecular target: Gal(b1-4)GlcNAc(b1-2)Man(a1-6)[Man(a1-3)]Man(b1-4)GlcNAc(b1-4)GlcNAc
In short: as §1

[14] = molecular target: Gal(b1-4)GlcNAc(b1-2)[Gal(b1-4)GlcNAc(b1-4)]Man(a1-3)[Gal(b1-4)GlcNAc(b1-2)Man(a1-6)]Man(b1-4)GlcNAc(b1-4)GlcNAc
In short: as §1

[15] = molecular target: Gal(b1-4)GlcNAc(b1-2)[Gal(b1-4)GlcNAc(b1-4)]Man(a1-3)[Gal(b1-4)GlcNAc(b1-2)[Gal(b1-4)GlcNAc(b1-6)]Man(a1-6)]Man(b1-4)GlcNAc(b1-4)GlcNAc
In short: as §1

[16] = molecular target: Gal(b1-4)GlcNAc(b1-2)[Gal(b1-4)GlcNAc(b1-4)]Man(a1-3)[GlcNAc(b1-4)][Gal(b1-4)GlcNAc(b1-2)Man(a1-6)]Man(b1-4)GlcNAc(b1-4)GlcNAc
In short: as §1

[17] = molecular target: Gal(b1-4)GlcNAc(b1-2)[Gal(b1-4)GlcNAc(b1-4)]Man(a1-3)[GlcNAc(b1-4)][Gal(b1-4)GlcNAc(b1-2)[Gal(b1-4)GlcNAc(b1-6)]Man(a1-6)]Man(b1-4)GlcNAc(b1-4)GlcNAc
In short: as §1

[18] = molecular target: Gal(b1-4)GlcNAc(b1-2)[Gal(b1-4)GlcNAc(b1-6)]Man(a1-6)[Gal(b1-4)GlcNAc(b1-2)Man(a1-3)]Man(b1-4)GlcNAc(b1-4)GlcNAc
In short: as §1

[19] = molecular target: Gal(b1-4)GlcNAc(b1-2)[Gal(b1-4)GlcNAc(b1-6)]Man(a1-6)[Gal(b1-4)GlcNAc(b1-2)Man(a1-3)]Man(b1-4)GlcNAc(b1-4)[Fuc(a1-6)]GlcNAc
In short: as §1

[20] = molecular target: Gal(b1-4)GlcNAc(b1-2)[Gal(b1-4)GlcNAc(b1-6)]Man(a1-6)[GlcNAc(b1-4)][Gal(b1-4)GlcNAc(b1-2)Man(a1-3)]Man(b1-4)GlcNAc(b1-4)GlcNAc
In short: as §1

[21] = molecular target: Gal(b1-4)GlcNAc(b1-2)[Gal(b1-4)GlcNAc(b1-6)]Man(a1-6)[GlcNAc(b1-4)][Gal(b1-4)GlcNAc(b1-2)[Gal(b1-4)GlcNAc(b1-4)]Man(a1-3)]Man(b1-4)GlcNAc(b1-4)[Fuc(a1-6)]GlcNAc
In short: as §1

[22] = molecular target: Gal(b1-4)GlcNAc(b1-3)Gal(b1-3)GalNAc
In short: as §1

[23] = molecular target: Gal(b1-4)GlcNAc(b1-3)Gal(b1-3)GlcNAc
In short: as §1

[24] = molecular target: Gal(b1-4)GlcNAc(b1-3)Gal(b1-4)Glc
In short: as §1

[25] = molecular target: Gal(b1-4)GlcNAc(b1-3)Gal(b1-4)GlcNAc
In short: as §1

[26] = molecular target: Gal(b1-4)GlcNAc(b1-3)Gal(b1-4)GlcNAc(b1-2)Man(a1-3)[Gal(b1-4)GlcNAc(b1-3)Gal(b1-4)GlcNAc(b1-2)Man(a1-6)]Man(b1-4)GlcNAc(b1-4)GlcNAc
In short: as §1

B1: Di AAL2 (Agrocybe aegerita) (protein)
chain: MTSNVITQDLPIPVASRGFADIVGFGLDGVVIGRNAVNLQPFLAVKNFAQNAGGWLTTKHVRLIADTTGTGKGDIVGFGNAGVYVSVNNGKNTFADPPKMVIANFGYDAGGWRVEKHLRYLADIRKIGRADIIGFGEKGVLVSRNNGGLNFGPATLVLKDFGYDAGGWRLDRHLRFLADVTGNGHLDIVGFGDKHVFISRNNGDGTFAPAKSVIDNFCIDAGGWKIGDHPRFVADLTGDGTADIIGCGKAGCWVALNNGGGVFGQVKLVINDFGTDKGWQAAKHPRFIADLTGNGRGDVVGFGNAGVYVALNNGDGTFQSAKLVLKDFGVQQGWTVSKHRRFVVDLTGDGCADIIGFGEKETLVSYNDGKGNFGPVKALTNDFSFSGGKWAPETTVCWMANLDSSRHPAPAPMTSNVITQDLPIPVASRGFADIVGFGLDGVVIGRNAVNLQPFLAVKNFAQNAGGWLTTKHVRLIADTTGTGKGDIVGFGNAGVYVSVNNGKNTFADPPKMVIANFGYDAGGWRVEKHLRYLADIRKIGRADIIGFGEKGVLVSRNNGGLNFGPATLVLKDFGYDAGGWRLDRHLRFLADVTGNGHLDIVGFGDKHVFISRNNGDGTFAPAKSVIDNFCIDAGGWKIGDHPRFVADLTGDGTADIIGCGKAGCWVALNNGGGVFGQVKLVINDFGTDKGWQAAKHPRFIADLTGNGRGDVVGFGNAGVYVALNNGDGTFQSAKLVLKDFGVQQGWTVSKHRRFVVDLTGDGCADIIGFGEKETLVSYNDGKGNFGPVKALTNDFSFSGGKWAPETTVCWMANLDSSRH
glycan array binding signal (z-score) [1]: -0.339
glycan array binding signal (z-score) (Gal(b1-4)Glc): -0.303
glycan array binding signal (z-score) (Gal(b1-4)Glc6S): -0.327
glycan array binding signal (z-score) (Gal(b1-4)GlcNAc): -0.302
glycan array binding signal (z-score) [2]: -0.334
glycan array binding signal (z-score) (Gal(b1-4)GlcNAc(b1-2)Man): -0.282
glycan array binding signal (z-score) [3]: -0.316
glycan array binding signal (z-score) [4]: -0.331
glycan array binding signal (z-score) [5]: -0.343
glycan array binding signal (z-score) [6]: -0.31
glycan array binding signal (z-score) [7]: -0.34
glycan array binding signal (z-score) [8]: -0.199
glycan array binding signal (z-score) [9]: -0.333
glycan array binding signal (z-score) [10]: -0.264
glycan array binding signal (z-score) [11]: -0.322
glycan array binding signal (z-score) [12]: -0.047
glycan array binding signal (z-score) [13]: -0.31
glycan array binding signal (z-score) [14]: -0.255
glycan array binding signal (z-score) [15]: -0.346
glycan array binding signal (z-score) [16]: -0.313
glycan array binding signal (z-score) [17]: -0.327
glycan array binding signal (z-score) [18]: -0.332
glycan array binding signal (z-score) [19]: -0.304
glycan array binding signal (z-score) [20]: -0.329
glycan array binding signal (z-score) [21]: -0.338
glycan array binding signal (z-score) [22]: -0.172
glycan array binding signal (z-score) [23]: -0.309
glycan array binding signal (z-score) [24]: 0.009
glycan array binding signal (z-score) [25]: -0.059
glycan array binding signal (z-score) [26]: -0.254
